# Whole data set: some 33,000 sequences, median “E-score (-0.5 to 0.5)” near -0.041, cut for the highest 2% near 0.37. The list shows a part of the results.
# Target: T1, Ecm22 (UniProt Q05958)
# T1 sequence: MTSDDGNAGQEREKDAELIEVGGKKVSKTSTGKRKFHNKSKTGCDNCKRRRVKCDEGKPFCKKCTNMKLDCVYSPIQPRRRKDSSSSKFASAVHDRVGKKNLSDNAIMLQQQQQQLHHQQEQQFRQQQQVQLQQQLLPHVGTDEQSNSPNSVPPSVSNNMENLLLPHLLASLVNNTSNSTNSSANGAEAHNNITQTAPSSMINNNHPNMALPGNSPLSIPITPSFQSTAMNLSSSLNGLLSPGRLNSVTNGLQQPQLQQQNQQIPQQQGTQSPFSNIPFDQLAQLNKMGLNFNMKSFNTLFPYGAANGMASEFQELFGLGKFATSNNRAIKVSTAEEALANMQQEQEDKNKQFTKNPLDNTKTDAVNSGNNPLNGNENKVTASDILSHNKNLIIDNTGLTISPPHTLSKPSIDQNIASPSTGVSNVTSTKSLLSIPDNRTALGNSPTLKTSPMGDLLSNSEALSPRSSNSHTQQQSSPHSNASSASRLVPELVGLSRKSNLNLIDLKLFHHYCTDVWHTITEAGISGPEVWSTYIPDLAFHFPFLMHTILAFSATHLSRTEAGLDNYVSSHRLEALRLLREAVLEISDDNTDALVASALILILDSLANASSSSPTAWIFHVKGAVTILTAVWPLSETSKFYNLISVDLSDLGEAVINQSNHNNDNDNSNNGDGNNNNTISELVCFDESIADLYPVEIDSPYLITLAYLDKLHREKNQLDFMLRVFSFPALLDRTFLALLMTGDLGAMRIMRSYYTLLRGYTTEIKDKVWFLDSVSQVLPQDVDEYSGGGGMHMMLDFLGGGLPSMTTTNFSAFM
# Assay: PBM E-score (8-mer binding enrichment) (E-score (-0.5 to 0.5)); higher = stronger / more preferred TF binding; most listed sequences are background and not binding sites
# Details: protein concentration: 200 nM; construct: GST-full length
# How it was run: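 Yeast transcription factors, full-length or as DNA-binding domains, were expressed with a GST tag using PURExpress in vitro transcription/translation. At about 100-200 nM they were applied to universal all-10-mer Agilent arrays, double-stranded by primer extension on fresh or once-stripped slides. Fluorescent anti-GST detected bound protein, and masliner normalised the scans. E-scores for ungapped eight-base words, pooled with reverse complements, came from the Universal PBM Analysis Suite.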
row,Sequence,PBM E-score
1,CCGAAGGC,-0.06
2,GCCGGCAA,-0.11
3,ACCTAGGA,-0.149
4,AAAGGGAG,-0.0883
5,CTATTGTA,0.0295
6,CGCTTGTA,0.144
7,GAGTCACC,-0.239
8,ACGCCAGG,0.0457
9,AACTTACT,-0.0669
10,GGAATGCC,-0.127
11,TCATCTCA,-0.176
12,CAGCTAAC,-0.317
13,CCGATGTC,0.0725
14,ACACTGGG,-0.236
15,ATATCTTA,-0.0263
16,AATAGGTA,0.0489
17,AAGTTCTA,-0.128
18,CGACCTTA,0.198
19,AAAACCAT,0.00577
20,AGATGTGC,0.00632
21,CGGTGGCA,-0.0759
22,TTATTGAA,-0.0898
23,TAACGAGA,0.369
24,GCACCACA,-0.165
25,AGCACCAG,-0.102

row,Sequence,PBM E-score
1,CCGCCTCC,-0.146
2,CCCATGGA,-0.322
3,CATTGAAA,-0.0549
4,GCCGCTAA,-0.136
5,ATTCATGG,-0.165
6,AGCTGTAC,0.115
7,ACCTGCAA,-0.123
8,CAATTCTA,0.0583
9,CGCCAAGA,-0.249
10,ATACATGA,-0.115
11,GGGTTCCA,-0.202
12,ACTGCAGG,-0.205
13,GAGCCCTC,0.0299
14,CTTCAAGC,-0.283
15,GTGCTATA,0.0864
16,CAGAGTTA,-0.19
17,CGACCGTA,0.353
18,CCACCCGA,0.0929
19,ACGATTGA,0.256
20,ATAGGAAC,0.163
21,GGTATACA,-0.21
22,CCGGCCCG,-0.0527
23,AAACAGAG,-0.0517
24,ATACCTTG,-0.247
25,AGGCATAT,0.071

row,Sequence,PBM E-score
1,CATTTGCG,0.0603
2,CTAGCCAA,-0.217
3,AGTGCGAA,-0.0211
4,ATCCCTCA,-0.127
5,AATACTCT,-0.15
6,AGAATCTC,0.059
7,TACGTTAA,0.284
8,CGTACCCA,0.406
9,GCTCATTA,-0.0727
10,GTTGGAAA,-0.123
11,ATTACGGC,0.0778
12,ATAATTTA,0.152
13,AGAAGACT,-0.182
14,ACGTCCAG,-0.212
15,CTGCATTC,0.0735
16,CAACACAC,-0.0749
17,AAGTCGTC,0.139
18,GACAGAGC,-0.223
19,GCTACCCA,-0.221
20,AACTGGGA,-0.217
21,AGAGGGTC,-0.257
22,AGGGAAAA,-0.0563
23,AAAAAGGG,-0.092
24,AGTGTAGA,-0.064
25,TACCCCTA,-0.119

row,Sequence,PBM E-score
1,AGCCGTTC,0.267
2,ATATCAAA,0.0161
3,TAGATCTA,0.0649
4,GGTCGGAC,0.0643
5,CGCAAGCG,0.142
6,CCTCAGGA,-0.184
7,ACTGGGTG,-0.237
8,GCTCGCAA,0.244
9,AAAACCCA,-0.0261
10,CCTTCTGA,-0.154
11,ATCTAGAA,-0.0135
12,ACTCTTTC,-0.196
13,CGCAGGGA,-0.294
14,CAGGCCTG,-0.226
15,ACTCGATG,0.115
16,ATAAGCCC,-0.136
17,GGATACGA,0.45
18,ATGATAAA,0.113
19,CTTCGTAA,0.413
20,CCTAATAA,0.1
21,CATCTAGG,-0.229
22,CCCCAAAA,-0.0131
23,ATATACGG,0.441
24,GTGGGTCA,-0.308
25,AAGGCAGT,-0.148

row,Sequence,PBM E-score
1,AAGGCATA,-0.135
2,AAGCCGTA,0.247
3,GAATAGAA,-0.00471
4,AGACCGAA,0.172
5,CTGCTAAG,-0.29
6,ACGCATGG,-0.0301
7,GATATCGC,0.0915
8,ACGTACGG,0.362
9,GCACACGA,0.134
10,CGAGGGCA,0.215
11,ATCGCTAA,0.2
12,ACTTACCG,0.182
13,GGAGGCAC,-0.238
14,CACCTGTA,-0.164
15,ATACAAAG,0.0488
16,ACACAACG,0.141
17,ACTAGACC,-0.111
18,AACTCGCC,0.074
19,ATCGGTGC,-0.131
20,AATCATTC,0.0339
21,AGGCACAG,-0.269
22,ATCGGTAA,0.277
23,AGCCTTGA,-0.137
24,CACGGGCG,-0.186
25,CTAGGGTC,-0.139

row,Sequence,PBM E-score
1,AGTTGCTA,0.0721
2,CAGACACA,-0.15
3,CGAATAAA,0.187
4,CGAGGCAA,0.197
5,TCACTCGA,0.163
6,CGTGACGC,0.178
7,CAAACCCC,-0.204
8,AATCAGCT,-0.187
9,AACAGCGT,-0.0225
10,GTCTCCTA,-0.166
11,TGCTAGAA,-0.136
12,CTGAGGCC,-0.166
13,GAATAAGC,-0.183
14,ACAAAGAA,0.112
15,GATAATGC,0.0381
16,ATTAACTG,0.145
17,GATCGGAA,0.108
18,AAATATCG,0.229
19,CGCTGGGA,-0.0454
20,ACCAAGGT,-0.083
21,TCTGTAAA,-0.0281
22,ACCATCCT,-0.12
23,CACCCCAC,-0.202
24,AGTGTTGG,0.00553
25,CGAGTACG,0.392

row,Sequence,PBM E-score
1,CAACTACG,0.0594
2,GAGGCGCC,0.0193
3,CGTTGTTA,0.0522
4,TAGGAAGA,-0.189
5,ACGGATTC,0.201
6,TATGCGGA,0.133
7,CGCACGCA,0.141
8,GTATTTCA,0.0746
9,CAGGGACA,-0.0856
10,AGCTCGGA,0.135
11,GCTGGCCA,-0.297
12,CCTACTTA,-0.287
13,ACAGACAA,0.182
14,AAGTCTCT,-0.212
15,AGACGGGC,0.0127
16,ATCTACAG,-0.142
17,CAATGTGA,-0.127
18,GAGCTCAC,-0.0272
19,AGAGATGC,-0.0736
20,ATGTCCAG,-0.0894
21,ATCCGGAT,-0.0213
22,ATCCGGTA,0.131
